B1: MS2 coat protein; the commonest letter at each place (parent)
chain: MASNFTQFVLVDNGGTGDVTVAPSNFANGVAEWISSNSRSQAYKVTCSVRQSSAQNRKYTIKVEVPKVATQTVGGVELPVAAWRSYLNMELTIPIFATNSDCELIVKAMQGLLKDGNPIPSAIAANSGIY

Variants of: B1
Experiment: apparent fitness score (VLP assembly selection enrichment vs plasmid library) (log10 ratio); higher = better expression / assembly into well-formed VLPs
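Note: counts from Illumina MiSeq reads, cDNA of packaged RNA versus plasmid DNA taken before selection, each replicate independent from library construction onward, expression induced with 0.1% arabinose.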

Variant	apparent fitness score (log10)
MASNFTQFVLVDNGGTGDVTVAPSNFANGVAEWISSNSRSQAYKVTCSVRQSSAMNRKYTIKVEVPKVATQTVGGVELPVAAWRSYLNMELTIPIFATNSDCELIVKAMQGLLKDGNPIPSAIAANSGIY	-0.35
MASNFTQFVLVDNGGTGDVTVAPSNFANGVAEWISSNSRSQAYKVTCSVRQSSANNRKYTIKVEVPKVATQTVGGVELPVAAWRSYLNMELTIPIFATNSDCELIVKAMQGLLKDGNPIPSAIAANSGIY	0.331
MASNFTQFVLVDNGGTGDVTVAPSNFANGVAEWISSNSRSQAYKVTCSVRQSSAPNRKYTIKVEVPKVATQTVGGVELPVAAWRSYLNMELTIPIFATNSDCELIVKAMQGLLKDGNPIPSAIAANSGIY	-1.19
MASNFTQFVLVDNGGTGDVTVAPSNFANGVAEWISSNSRSQAYKVTCSVRQSSARNRKYTIKVEVPKVATQTVGGVELPVAAWRSYLNMELTIPIFATNSDCELIVKAMQGLLKDGNPIPSAIAANSGIY	0.452
MASNFTQFVLVDNGGTGDVTVAPSNFANGVAEWISSNSRSQAYKVTCSVRQSSASNRKYTIKVEVPKVATQTVGGVELPVAAWRSYLNMELTIPIFATNSDCELIVKAMQGLLKDGNPIPSAIAANSGIY	-0.213
MASNFTQFVLVDNGGTGDVTVAPSNFANGVAEWISSNSRSQAYKVTCSVRQSSATNRKYTIKVEVPKVATQTVGGVELPVAAWRSYLNMELTIPIFATNSDCELIVKAMQGLLKDGNPIPSAIAANSGIY	0.283
MASNFTQFVLVDNGGTGDVTVAPSNFANGVAEWISSNSRSQAYKVTCSVRQSSAVNRKYTIKVEVPKVATQTVGGVELPVAAWRSYLNMELTIPIFATNSDCELIVKAMQGLLKDGNPIPSAIAANSGIY	0.376
MASNFTQFVLVDNGGTGDVTVAPSNFANGVAEWISSNSRSQAYKVTCSVRQSSAWNRKYTIKVEVPKVATQTVGGVELPVAAWRSYLNMELTIPIFATNSDCELIVKAMQGLLKDGNPIPSAIAANSGIY	-0.0213
MASNFTQFVLVDNGGTGDVTVAPSNFANGVAEWISSNSRSQAYKVTCSVRQSSAYNRKYTIKVEVPKVATQTVGGVELPVAAWRSYLNMELTIPIFATNSDCELIVKAMQGLLKDGNPIPSAIAANSGIY	-0.585
MASNFTQFVLVDNGGTGDVTVAPSNFANGVAEWISSNSRSQAYKVTCSVRQSSAQARKYTIKVEVPKVATQTVGGVELPVAAWRSYLNMELTIPIFATNSDCELIVKAMQGLLKDGNPIPSAIAANSGIY	0.33
MASNFTQFVLVDNGGTGDVTVAPSNFANGVAEWISSNSRSQAYKVTCSVRQSSAQCRKYTIKVEVPKVATQTVGGVELPVAAWRSYLNMELTIPIFATNSDCELIVKAMQGLLKDGNPIPSAIAANSGIY	-0.624
MASNFTQFVLVDNGGTGDVTVAPSNFANGVAEWISSNSRSQAYKVTCSVRQSSAQDRKYTIKVEVPKVATQTVGGVELPVAAWRSYLNMELTIPIFATNSDCELIVKAMQGLLKDGNPIPSAIAANSGIY	0.0111
MASNFTQFVLVDNGGTGDVTVAPSNFANGVAEWISSNSRSQAYKVTCSVRQSSAQERKYTIKVEVPKVATQTVGGVELPVAAWRSYLNMELTIPIFATNSDCELIVKAMQGLLKDGNPIPSAIAANSGIY	< -4
MASNFTQFVLVDNGGTGDVTVAPSNFANGVAEWISSNSRSQAYKVTCSVRQSSAQFRKYTIKVEVPKVATQTVGGVELPVAAWRSYLNMELTIPIFATNSDCELIVKAMQGLLKDGNPIPSAIAANSGIY	-1.5
MASNFTQFVLVDNGGTGDVTVAPSNFANGVAEWISSNSRSQAYKVTCSVRQSSAQGRKYTIKVEVPKVATQTVGGVELPVAAWRSYLNMELTIPIFATNSDCELIVKAMQGLLKDGNPIPSAIAANSGIY	-1.69
MASNFTQFVLVDNGGTGDVTVAPSNFANGVAEWISSNSRSQAYKVTCSVRQSSAQHRKYTIKVEVPKVATQTVGGVELPVAAWRSYLNMELTIPIFATNSDCELIVKAMQGLLKDGNPIPSAIAANSGIY	-1.09
MASNFTQFVLVDNGGTGDVTVAPSNFANGVAEWISSNSRSQAYKVTCSVRQSSAQIRKYTIKVEVPKVATQTVGGVELPVAAWRSYLNMELTIPIFATNSDCELIVKAMQGLLKDGNPIPSAIAANSGIY	-0.833
MASNFTQFVLVDNGGTGDVTVAPSNFANGVAEWISSNSRSQAYKVTCSVRQSSAQKRKYTIKVEVPKVATQTVGGVELPVAAWRSYLNMELTIPIFATNSDCELIVKAMQGLLKDGNPIPSAIAANSGIY	-0.865
MASNFTQFVLVDNGGTGDVTVAPSNFANGVAEWISSNSRSQAYKVTCSVRQSSAQLRKYTIKVEVPKVATQTVGGVELPVAAWRSYLNMELTIPIFATNSDCELIVKAMQGLLKDGNPIPSAIAANSGIY	-0.986
MASNFTQFVLVDNGGTGDVTVAPSNFANGVAEWISSNSRSQAYKVTCSVRQSSAQMRKYTIKVEVPKVATQTVGGVELPVAAWRSYLNMELTIPIFATNSDCELIVKAMQGLLKDGNPIPSAIAANSGIY	-0.622
MASNFTQFVLVDNGGTGDVTVAPSNFANGVAEWISSNSRSQAYKVTCSVRQSSAQPRKYTIKVEVPKVATQTVGGVELPVAAWRSYLNMELTIPIFATNSDCELIVKAMQGLLKDGNPIPSAIAANSGIY	-1.91
MASNFTQFVLVDNGGTGDVTVAPSNFANGVAEWISSNSRSQAYKVTCSVRQSSAQQRKYTIKVEVPKVATQTVGGVELPVAAWRSYLNMELTIPIFATNSDCELIVKAMQGLLKDGNPIPSAIAANSGIY	-0.382
